# Source: the supplement of paper PMC10037445
# Over roughly 2,900 compounds, “NF-kB SEAP reporter activity, fold change vs agonist alone” has its median near 0.99; the highest 2% begin near 2.6. This is one part of the list.
# Assays:
# RAW-Dual [1] = experiment: NF-kB SEAP reporter activity, fold change vs agonist alone; cytotoxicity flag (confluency mask): not cytotoxic; higher = enhanced NF-kB activity
# How it was run: (§1)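 Supernatant from RAW-Dual macrophages was read after 20 hours for IRF by QuantiLuc luminescence and for NF-κB by QuantiBlue absorbance at 620 nm. The cells (50,000 cells/well in DMEM, 384-well plates, 37 °C, 5% CO2) had received 50 nL of library stock by pin tool and, 1 h later, a PRR agonist. Reporter activity is expressed relative to agonist-alone wells as fold change, and wells were flagged cytotoxic if IncuCyte confluency was under 70% of agonist controls in both mask sets.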
# RAW-Dual [2] = experiment: NF-kB SEAP reporter activity, fold change vs agonist alone; cytotoxicity flag (confluency mask): cytotoxic (confluency <70% of control); higher = enhanced NF-kB activity
# How it was run: as §1
# RAW-Dual [3] = experiment: NF-kB SEAP reporter activity, fold change vs agonist alone; higher = enhanced NF-kB activity; details: library stock concentration (final ~1000-fold dilution): 10 mM
# How it was run: as §1
# [4] = agonist: ODN 1826 (TLR9) 0.5 ug/mL
# [5] = agonist: Pam2CSK4 (TLR2/6) 0.1 ug/mL
# [6] = agonist: Pam3CSK4 (TLR2/1) 0.1 ug/mL
# [7] = cytotoxicity flag (confluency mask): cytotoxic (confluency <70% of control), agonist: MPLA (TLR4) […]
# [8] = cytotoxicity flag (confluency mask): not cytotoxic, agonist: Imiquimod (TLR7) […]
# [9] = cytotoxicity flag (confluency mask): not cytotoxic, agonist: MPLA (TLR4) […]
structure (smiles),measurement,setting,value
c1cncc(CN2CCC(n3ncc4c(N5CCOCC5)nc(-c5ccc6[nH]ccc6c5)nc43)CC2)c1 (library stock concentration (final ~1000-fold dilution): 10 mM),NF-kB SEAP reporter activity,RAW-Dual [1]; agonist: LPS (TLR4) 0.1 ug/mL,2.91
COC(=O)CC(O)(CCCC(C)(C)O)C(=O)OC1C(OC)=CC23CCCN2CCc2cc4c(cc2C13)OCO4 (centres undefined) (library stock concentration (final ~1000-fold dilution): 10 mM),NF-kB SEAP reporter activity,RAW-Dual [2]; agonist: LPS (TLR4) 0.1 ug/mL,0.397
same,NF-kB SEAP reporter activity,RAW-Dual [2]; [4],0.169
same,NF-kB SEAP reporter activity,RAW-Dual [2]; [5],0.0771
same,NF-kB SEAP reporter activity,RAW-Dual [2]; [6],0.133
COC(=O)CC(O)(CCCC(C)(C)O)C(=O)OC1C(OC)=CC23CCCN2CCc2cc4c(cc2C13)OCO4 (centres undefined),NF-kB SEAP reporter activity,"RAW-Dual [3]; cytotoxicity flag (confluency mask): cytotoxic (confluency <70% of control), agonist: Imiquimod (TLR7) […]",0.141
same,NF-kB SEAP reporter activity,RAW-Dual [3]; [7],0.255
COc1ccc(C[C@@H]2c3cc(Oc4cc(C[C@@H]5c6cc(OC)c(OC)cc6CCN5C)ccc4O)c(OC)cc3CCN2C)cc1 (library stock concentration (final ~1000-fold dilution): 10 mM),NF-kB SEAP reporter activity,RAW-Dual [1]; agonist: LPS (TLR4) 0.1 ug/mL,1.06
same,NF-kB SEAP reporter activity,RAW-Dual [1]; [4],0.182
same,NF-kB SEAP reporter activity,RAW-Dual [1]; [5],0.121
same,NF-kB SEAP reporter activity,RAW-Dual [1]; [6],0.622
COc1ccc(C[C@@H]2c3cc(Oc4cc(C[C@@H]5c6cc(OC)c(OC)cc6CCN5C)ccc4O)c(OC)cc3CCN2C)cc1,NF-kB SEAP reporter activity,RAW-Dual [3]; [8],0.915
same,NF-kB SEAP reporter activity,RAW-Dual [3]; [9],1.09
Nc1ncnc2c1ncn2C1CCCO1 (centres undefined) (library stock concentration (final ~1000-fold dilution): 10 mM),NF-kB SEAP reporter activity,RAW-Dual [1]; agonist: LPS (TLR4) 0.1 ug/mL,1.39
same,NF-kB SEAP reporter activity,RAW-Dual [1]; [4],0.835
same,NF-kB SEAP reporter activity,RAW-Dual [1]; [5],1.03
same,NF-kB SEAP reporter activity,RAW-Dual [1]; [6],0.983
Nc1ncnc2c1ncn2C1CCCO1 (centres undefined),NF-kB SEAP reporter activity,RAW-Dual [3]; [8],0.792
same,NF-kB SEAP reporter activity,RAW-Dual [3]; [9],0.86
CC1CC(C(=O)O)C2CCC3(C)C(=CCC4C5(C)CCC(O)C(C)(C)C5CCC43C)C2C1C (centres undefined) (library stock concentration (final ~1000-fold dilution): 10 mM),NF-kB SEAP reporter activity,RAW-Dual [1]; agonist: LPS (TLR4) 0.1 ug/mL,1.46
same,NF-kB SEAP reporter activity,RAW-Dual [1]; [4],0.926
same,NF-kB SEAP reporter activity,RAW-Dual [1]; [5],0.938
same,NF-kB SEAP reporter activity,RAW-Dual [1]; [6],0.898
CC1CC(C(=O)O)C2CCC3(C)C(=CCC4C5(C)CCC(O)C(C)(C)C5CCC43C)C2C1C (centres undefined),NF-kB SEAP reporter activity,RAW-Dual [3]; [8],0.951
same,NF-kB SEAP reporter activity,RAW-Dual [3]; [9],0.975
CNCCN(C)Cc1c[nH]nc1-c1ccc(OC2CC(OCCC3CCOCC3)C2)cc1.Cl.Cl (centres undefined) (library stock concentration (final ~1000-fold dilution): 10 mM),NF-kB SEAP reporter activity,RAW-Dual [1]; agonist: LPS (TLR4) 0.1 ug/mL,0.836
same,NF-kB SEAP reporter activity,RAW-Dual [1]; [4],0.674
same,NF-kB SEAP reporter activity,RAW-Dual [1]; [5],0.874
same,NF-kB SEAP reporter activity,RAW-Dual [1]; [6],0.586
CNCCN(C)Cc1c[nH]nc1-c1ccc(OC2CC(OCCC3CCOCC3)C2)cc1.Cl.Cl (centres undefined),NF-kB SEAP reporter activity,RAW-Dual [3]; [8],0.935
same,NF-kB SEAP reporter activity,RAW-Dual [3]; [9],1.07
Cc1[nH]c2ccccc2c1CCNCc1ccc(/C=C/C(=O)NO)cc1 (library stock concentration (final ~1000-fold dilution): 10 mM),NF-kB SEAP reporter activity,RAW-Dual [2]; agonist: LPS (TLR4) 0.1 ug/mL,4.6
Cc1[nH]c2ccccc2c1CCNCc1ccc(/C=C/C(=O)NO)cc1,NF-kB SEAP reporter activity,RAW-Dual [3]; [7],2.63
COc1ccnc(C[S+]([O-])c2nc3cc(OC(F)F)ccc3[nH]2)c1OC (centres undefined),NF-kB SEAP reporter activity,RAW-Dual [3]; [8],0.898
same,NF-kB SEAP reporter activity,RAW-Dual [3]; [9],1.02
COc1ccnc(C[S+]([O-])c2nc3cc(OC(F)F)ccc3[nH]2)c1OC (centres undefined) (library stock concentration (final ~1000-fold dilution): 10 mM),NF-kB SEAP reporter activity,RAW-Dual [1]; agonist: LPS (TLR4) 0.1 ug/mL,0.981
same,NF-kB SEAP reporter activity,RAW-Dual [1]; [4],0.923
same,NF-kB SEAP reporter activity,RAW-Dual [1]; [5],0.959
same,NF-kB SEAP reporter activity,RAW-Dual [1]; [6],0.966
Cc1cc(C)c(S(=O)(=O)n2cc(C)cc2C)c(C)c1,NF-kB SEAP reporter activity,RAW-Dual [3]; [8],0.822
same,NF-kB SEAP reporter activity,RAW-Dual [3]; [9],0.971
Cc1cc(C)c(S(=O)(=O)n2cc(C)cc2C)c(C)c1 (library stock concentration (final ~1000-fold dilution): 10 mM),NF-kB SEAP reporter activity,RAW-Dual [1]; agonist: LPS (TLR4) 0.1 ug/mL,1.7
same,NF-kB SEAP reporter activity,RAW-Dual [1]; [4],0.758
same,NF-kB SEAP reporter activity,RAW-Dual [1]; [5],0.761
same,NF-kB SEAP reporter activity,RAW-Dual [1]; [6],0.902
C=CC(=O)Nc1ccc(CN2C(=O)N(c3cc(OC)cc(OC)c3)Cc3cnc(Nc4ccc(N5CCN(C)CC5)cc4)nc32)cc1 (library stock concentration (final ~1000-fold dilution): 10 mM),NF-kB SEAP reporter activity,RAW-Dual [1]; agonist: LPS (TLR4) 0.1 ug/mL,0.451
same,NF-kB SEAP reporter activity,RAW-Dual [1]; [4],0.376
same,NF-kB SEAP reporter activity,RAW-Dual [1]; [5],0.217
same,NF-kB SEAP reporter activity,RAW-Dual [1]; [6],0.323
C=CC(=O)Nc1ccc(CN2C(=O)N(c3cc(OC)cc(OC)c3)Cc3cnc(Nc4ccc(N5CCN(C)CC5)cc4)nc32)cc1,NF-kB SEAP reporter activity,RAW-Dual [3]; [8],0.353
same,NF-kB SEAP reporter activity,RAW-Dual [3]; [9],0.768
O=C(O)[C@H]1O[C@@H](Oc2cc3oc(-c4ccccc4)cc(=O)c3c(O)c2O)[C@H](O)[C@@H](O)[C@@H]1O,NF-kB SEAP reporter activity,RAW-Dual [3]; [8],0.81
same,NF-kB SEAP reporter activity,RAW-Dual [3]; [9],1.06
O=C(O)[C@H]1O[C@@H](Oc2cc3oc(-c4ccccc4)cc(=O)c3c(O)c2O)[C@H](O)[C@@H](O)[C@@H]1O (library stock concentration (final ~1000-fold dilution): 10 mM),NF-kB SEAP reporter activity,RAW-Dual [1]; agonist: LPS (TLR4) 0.1 ug/mL,1.14
same,NF-kB SEAP reporter activity,RAW-Dual [1]; [4],1.07
same,NF-kB SEAP reporter activity,RAW-Dual [1]; [5],1.16
same,NF-kB SEAP reporter activity,RAW-Dual [1]; [6],0.883
Cn1cc(-c2ccncc2)c(-c2ccc(OCc3ccc4ccccc4n3)cc2)n1,NF-kB SEAP reporter activity,RAW-Dual [3]; [8],1.07
same,NF-kB SEAP reporter activity,RAW-Dual [3]; [9],1.15
Cn1cc(-c2ccncc2)c(-c2ccc(OCc3ccc4ccccc4n3)cc2)n1 (library stock concentration (final ~1000-fold dilution): 10 mM),NF-kB SEAP reporter activity,RAW-Dual [1]; agonist: LPS (TLR4) 0.1 ug/mL,1.25
same,NF-kB SEAP reporter activity,RAW-Dual [1]; [4],0.979
same,NF-kB SEAP reporter activity,RAW-Dual [1]; [5],0.704
same,NF-kB SEAP reporter activity,RAW-Dual [1]; [6],0.926
CCOC(=O)C(CCc1ccccc1)NC(C)C(=O)N1CCCC1C(=O)O.O=C(O)/C=C\C(=O)O (centres undefined) (library stock concentration (final ~1000-fold dilution): 10 mM),NF-kB SEAP reporter activity,RAW-Dual [1]; agonist: LPS (TLR4) 0.1 ug/mL,1.08
same,NF-kB SEAP reporter activity,RAW-Dual [1]; [4],1.04
same,NF-kB SEAP reporter activity,RAW-Dual [1]; [5],1.03
same,NF-kB SEAP reporter activity,RAW-Dual [1]; [6],1.02
CCOC(=O)C(CCc1ccccc1)NC(C)C(=O)N1CCCC1C(=O)O.O=C(O)/C=C\C(=O)O (centres undefined),NF-kB SEAP reporter activity,RAW-Dual [3]; [8],0.942
same,NF-kB SEAP reporter activity,RAW-Dual [3]; [9],1.06
